The source of these data is patent publication US20090036382A1 (UNIVERSITA DEGLI STUDI DI PADOVA, published 2009).

The experiment deals with T1, endogenous emilin1 physiologically produced by HEK293T cells (UniProt Q9Y6C2 22-1016).
T1 construct: Not overexpressed; detected with anti-emilin1 antibody
T1 sequence (looked up): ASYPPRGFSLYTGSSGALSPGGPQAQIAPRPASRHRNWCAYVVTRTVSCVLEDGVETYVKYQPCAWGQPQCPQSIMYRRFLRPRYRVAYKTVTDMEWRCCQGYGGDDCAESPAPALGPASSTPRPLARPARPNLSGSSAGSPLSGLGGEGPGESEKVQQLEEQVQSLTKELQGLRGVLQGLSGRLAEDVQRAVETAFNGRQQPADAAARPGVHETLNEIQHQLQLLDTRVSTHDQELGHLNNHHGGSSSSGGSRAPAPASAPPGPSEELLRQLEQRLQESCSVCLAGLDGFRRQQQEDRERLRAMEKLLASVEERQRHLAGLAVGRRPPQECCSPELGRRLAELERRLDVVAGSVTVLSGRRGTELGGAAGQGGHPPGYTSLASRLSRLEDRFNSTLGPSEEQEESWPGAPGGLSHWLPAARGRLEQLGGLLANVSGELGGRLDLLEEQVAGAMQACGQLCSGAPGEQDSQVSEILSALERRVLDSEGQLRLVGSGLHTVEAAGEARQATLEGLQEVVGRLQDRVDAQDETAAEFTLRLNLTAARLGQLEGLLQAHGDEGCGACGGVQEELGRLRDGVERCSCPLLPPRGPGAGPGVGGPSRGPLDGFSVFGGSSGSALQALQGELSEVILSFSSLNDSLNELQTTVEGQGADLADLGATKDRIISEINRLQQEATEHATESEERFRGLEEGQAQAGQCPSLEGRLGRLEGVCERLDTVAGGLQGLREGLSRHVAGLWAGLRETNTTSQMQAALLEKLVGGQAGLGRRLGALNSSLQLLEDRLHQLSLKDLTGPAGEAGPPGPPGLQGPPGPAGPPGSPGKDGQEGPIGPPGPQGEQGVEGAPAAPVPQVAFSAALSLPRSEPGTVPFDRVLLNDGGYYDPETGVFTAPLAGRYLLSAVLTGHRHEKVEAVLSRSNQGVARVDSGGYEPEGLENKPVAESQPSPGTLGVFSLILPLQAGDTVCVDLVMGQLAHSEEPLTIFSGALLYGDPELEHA
Description: immunoprecipitation of the culture medium with anti-LAP antibody, western blot with anti-emilin1 antibody. From the text:
Panel C: Immunoprecipitation of endogenous emilin after assembly with proTGF-β produced upon transfection. HEK293 cells were transfected with proTGF-β and culture medium was immunoprecipitated with anti-LAP antibodies. The immunoprecipitate was detected by Western-blot with anti-Flag antibody, that recognizes proTGF-β, or with anti-emilin1 antibody. Lane 1: control of immunoprecipitation specificity, lacking anti-LAP antibody (−); lane 2: Immunoprecipitation with anti-LAP antibody.
To ascertain that TGF-β interaction with emilin1 also occurs under physiological conditions of emilin 1 expression, HEK293T cells were transfected with the pro TGF-β encoding plasmid and culture medium was subjected to immunoprecipitation with anti-LAP antibody followed by western blotting with anti-LAP or anti-emilin1 (lower inset). Results are presented in FIG. 4C, showing that TGF-β co-precipitates also endogenous emilin1 (not overexpressed as result of transfection) physiologically produced by HEK293T cells. Therefore, it can be concluded that the interaction of pro TGF-β with emilin1 occurs also in presence of physiological levels of emilin1 expression.
For orientation: Immunoblotting shows a protein as a band on a membrane.

B1: pro TGF-β1 (human TGF-β1 precursor) (ligand)
chain: not shown
notes: Expressed from pCDNA3.1 in HEK293T cells; It is treated here as one molecule; also called TGF-β precursor; Flag-proTGF-β1
Turning to B1, the binding result is on record as “binds”.
